Screen size: about 110,000 compounds; about 40 (0.04%) were called active. Inconclusive means that the source gave no clear call. Such entries were picked first, then a sample of the others. The call rests on the fitted dose curve; in most records, active means well fitted curve in the direction sought with a large enough effect in the signal ratio (not every such curve was filed as active); inconclusive means small, poorly fitted or top-dose-only effect, or a change in a side signal; inactive means flat fitted curve, though single readings scatter; the % refers to the signal ratio. A potency beside an inconclusive call is a rough fit, not a confirmed value.
Assay: IkB Signaling
Settings: ABC-DLBCL IkBa-CBG/CBR dual luciferase ratio (green luciferase fused to IkBa over red control in OCI-Ly3 lymphoma cells), 4 h; IkBa stabilization activation: at 57.1 µM (top of the series), scaled: untreated 0%, proteasome inhibitor 100% unless noted
How it was run: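 Curves were fitted separately to fusion (green), unfused (red) and ratio luminescence, then classed by r2, magnitude and activity. Cells: OCI-Ly3, 4 h compound plus doxycycline at 37C; 10 uM MG-132 defined full response.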
Potency means the concentration at half of the fitted maximal effect.

Row | Structure (SMILES) | IkBa stabilization activation | Potency
1 | CCOC(=O)C1CCCN(CC(=O)NC2CC2)C1 (stereo unspecified) | inactive: -0.281% | 
2 | COCCCN1C(=O)c2[nH]nc(-c3cc(C)ccc3O)c2C1c1ccc(F)cc1 (stereo unspecified) | inconclusive: 1.41% [signal inhibitor] | 
3 | COc1cc(-n2nc(C)c3c2OC(N)=C(C#N)C3c2ccccc2)c(Cl)c(Br)c1O (stereo unspecified) | inconclusive: -1.64% [signal inhibitor] | 
4 | Cc1nnc(SCCC(C)C)[nH]c1=O |  | inconclusive: 15.8 µM [signal inhibitor, partial curve]
5 | COc1ccc(CNCCC(c2ccc(C)cc2)c2ccco2)cc1 (stereo unspecified) | inconclusive: 8.18% [signal inhibitor] | 
6 | Cc1cccc(OCC(=O)Nc2ccc(S(=O)(=O)Nc3onc(C)c3C)cc2)c1C | inconclusive: 13.9% [signal inhibitor] | 
7 | Clc1cccc(-n2ncc3c(Nc4ccc5c(c4)OCCO5)ncnc32)c1 | inconclusive: -4.57% [signal inhibitor] | 
8 | CC(=O)N1CCc2cc(S(=O)(=O)NC(Cc3ccccc3)C(=O)Nc3ccc(C)cc3C)ccc21 (stereo unspecified) | inconclusive: 0.0139% [signal inhibitor] | 
9 | CCCCCCc1ccc(-c2ncc(N)cn2)cc1 | inactive: -0.815% | 
10 | COc1ccccc1-c1ccc2ncnc(NCc3cnc(C)cn3)c2c1 | inactive: 1.65% [at 11.4 µM, scaled: untreated 0%, proteasome inhibitor 100%] | 
11 | CC(C)Oc1ccccc1C1CC(=O)Nc2cc3c(cc21)OCO3 (stereo unspecified) | inconclusive: 17.8% [signal inhibitor] | 
12 | COc1ccc(C(=O)Nc2ccc3oc(-c4cc(Cl)ccc4Cl)nc3c2)cc1Br | inconclusive: 1.43% [signal inhibitor] | 
13 | c1cnc2c(c1)ccc1cccnc12 | inactive | 
14 | CCOC(=O)C1CCCN(C(=O)c2ccc3c(c2)N(Cc2ccccc2F)C(=O)c2ccccc2S3=O)C1 (stereo unspecified) | inactive: 0.367% | 
15 | CC(=O)c1cccc(NC(=O)CCCSc2nc(-c3ccco3)cc(C(F)(F)F)n2)c1 | inconclusive: 16.8% [signal inhibitor] | 
16 | O=C(CCCN1CCC(c2ccccc2)C1)c1ccc2c(c1)OCCO2 (stereo unspecified) | inactive: 0.874% | 
17 | CCOc1ccc(Br)cc1/C=N/O | inactive: -0.43% | 
18 | COc1ccc(Cl)cc1C(=O)Nc1ccc(NC(=O)c2ccco2)cc1 | inactive: -0.374% | 
19 | COc1ccc(NC(=O)CN2C(=O)C(c3ccc(C)cc3)=NC23CCCCCC3)cc1Cl | inconclusive: 2.02% [signal inhibitor] | 
20 | COc1cccc(-c2nc(SCC(=O)NCC3CCCO3)c(-c3ccc(Cl)cc3)[nH]2)c1 (stereo unspecified) | inconclusive: 6.91% [signal inhibitor] | 
21 | CN(C)CCNC(=O)C(=O)NCC(c1cccnc1)N1CCN(c2ccccc2)CC1 (stereo unspecified) | inconclusive: -0.0389% [signal inhibitor] | 
22 | O=C(c1ccccc1Br)N(Cc1ccccc1F)C1CCS(=O)(=O)C1 (stereo unspecified) | inconclusive: 2.36% [signal inhibitor] | 
23 | CCC(C)NC(=O)CSCc1nc(-c2ccc(C)cc2)oc1C (stereo unspecified) | inconclusive: -0.749% [signal inhibitor] | 

Row | Structure (SMILES) | IkBa stabilization activation | Potency
24 | COc1ccc(OCC(=O)N(Cc2ccc(C)o2)C2CCS(=O)(=O)C2)cc1 (stereo unspecified) | inconclusive: -2.89% [signal inhibitor] | 
25 | Cc1cccc(CC(=O)NCCc2sc3nc(-c4ccc(F)cc4)nn3c2C)c1 | inconclusive: -0.171% [signal inhibitor] | 
26 | COc1ccc(-c2noc(CCC(=O)NCCCN3CCC(Cc4ccccc4)CC3)n2)cc1 | inconclusive: 4.51% [signal inhibitor] | 
27 | Cc1ccc(-c2nn3c(C)nnc3s2)cc1NCc1c(F)cccc1Cl | inactive: 3.67% | 
28 | N#Cc1ccccc1NC(=O)CSc1nnc(-c2ccccc2O)n1-c1ccccc1 | inconclusive: 1.18% [signal inhibitor] | 
29 | Cc1ccn2cc(C(=O)Nc3ccc4c(c3)OCCO4)nc2c1 | inconclusive: 1.62% [signal inhibitor] | 
30 | Cc1ccc(Cl)cc1NC(=O)CSCc1cnn(-c2ccccc2)c1-n1cccc1 | inconclusive: 4.18% [signal inhibitor] | 
31 | CCCCn1c(SCc2ncc(-c3ccccc3)o2)nc2cc(S(N)(=O)=O)ccc21 | inconclusive: 2.18% [signal inhibitor] | 
32 | O=C(Cn1c(=O)ccc2cc(S(=O)(=O)N3CCCC3)ccc21)Nc1ccc(Cl)cc1 | inconclusive: 3.82% [signal inhibitor] | 
33 | Cn1nnnc1SCCCNCc1ccccc1OCc1ccc(F)cc1 | inconclusive: 2.15% [signal inhibitor] | 
34 | COc1ccc(CNC(=O)CSc2ncc3c(n2)-c2cc(Cl)ccc2N(C)S3(=O)=O)cc1 | inactive: -2.23% | 
35 | CCOC(=O)c1c(NC(=O)c2ccn(CC)n2)sc2c1CCCC2 | inactive: 0.158% | 
36 | CCN1C(=O)c2ccccc2Sc2ccc(NC(=O)c3cccc(C)c3)cc21 | inconclusive: 0.997% [signal inhibitor] | 
37 | CCOC(=O)c1cc(OC(=O)c2ccccc2OC)n(-c2ccccc2)n1 | inconclusive: 1.14% [signal inhibitor] | 
38 | O=C(c1cccc2ccccc12)N1CCN(CC2CC=CCC2)CC1 (stereo unspecified) | inconclusive: -0.00395% [signal inhibitor] | 
39 | Cc1cc2n(n1)C(c1c[nH]c3ccccc13)Nc1ccccc1-2 (stereo unspecified) | inconclusive: 1.8% [signal inhibitor] | 
40 | Cc1ccc(OCc2nnc(SCC(=O)c3ccccc3)n2Cc2ccco2)cc1 | inactive: 1.11% | 
41 | CCOC(=O)N1CCC(NC(=O)CCC(=O)N2CC(C)Oc3ccc(C)cc32)CC1 (stereo unspecified) | inactive: 0.341% | 
42 | CC(C)[C@@H](C)/C=C\[C@@H](C)[C@@H]1CC[C@H]2C3=CC=C4C[C@@H](O)CC[C@]4(C)[C@H]3CC[C@]21C | inactive: -0.524% [at 11.4 µM, scaled: untreated 0%, proteasome inhibitor 100%] | 
43 | Cc1ccc(SCCNS(=O)(=O)c2ccc3c(c2)OCCO3)cc1 | inactive: 5.15% | 
44 | Cc1ccccc1-c1nc(NC2CC2)c2ccccc2n1 | inactive: 0.99% [at 11.4 µM, scaled: untreated 0%, proteasome inhibitor 100%] | 
45 | CC(=O)c1ccc(N2C(=O)Nc3ccccc3S2(=O)=O)cc1 | inactive: -0.495% | 
46 | O=C(Cn1c(SCC(=O)Nc2ccc(F)cc2)nc2ccccc21)NCc1ccc(Cl)cc1 | inconclusive: 5.51% [signal inhibitor] | 

Reference: PubChem BioAssay AID445 (National Center for Advancing Translational Sciences (NCATS), 2006)
